Inconclusive results, whose numbers are uncertain, are shown with a selection of clear calls. For some assays here: A potency beside an inconclusive call is a rough fit, not a confirmed value. Activity calls are given as the source filed them. Unless noted, calls come from the whole dose curve.
Key:
[1] = qHTS assay for small molecule agonists of the p53 signaling pathway (AID 651631); details: HCT-116 p53RE-bla reporter, beta-lactamase FRET ratio, 16 h; activation: at 73.3 µM (top of the series) unless noted; note: nearly all actives have a fitted effect of over 15% in size; note: potency is the fitted concentration of half-maximal effect; for activation: % is set by controls: 0 for no effect and ±100 for the full control effect
How it was run: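 p53RE-bla HCT-116 cells; compounds 16 h, 37 °C; LiveBLAzer B/G FRET substrate 2 h RT; fluorescence intensity read-out, qHTS format.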

[2] = qHTS assay for small molecules that induce genotoxicity in human embryonic kidney cells expressing luciferase-tagged ATAD5 - cell viability (AID 651634); note: potency is the fitted concentration of half-maximal effect; nearly all actives have a fitted effect of over 25% in size
How it was run: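 HEK293T ATAD5-luc cells, 2,000/well; compound 15.5 hr, 37C/5% CO2; CellTiter-Fluor 30 min, 37C; fluorescence read.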

[3] = qHTS assay for small molecule disruptors of the mitochondrial membrane potential (AID 720635; active = well fitted curve in the direction sought with a large enough effect in the repeat runs; inconclusive = weak or mixed curves; inactive = no such curve, though single readings can be large; an effect the other way counts as inactive or inconclusive; note: potency is the fitted concentration of half-maximal effect); details: HepG2 mitochondrial membrane potential, Mito-MPS dye ratio; ratio activity, negative = MMP loss: at 83.2 µM (top of the series) unless noted
How it was run: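 HepG2 cells (2,000/well) attached overnight at 37C, then took compound for 1 hr at 37C, 5% CO2. Mito-MPS dye was added for 30 min; fluorescence was read at 490/535 nm (monomers) and 540/590 nm (aggregates).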

[4] = target: Glucocorticoid receptor (Homo sapiens) (UniProt P04150); test: qHTS assay to identify small molecule antagonists of the glucocorticoid receptor (GR) signaling pathway (AID 720692; active = well fitted inhibition curve with a large enough effect in the signal ratio in the repeat runs, not every such curve was filed as active; inconclusive = weak or mixed curves, or effect the other way; inactive = no such curve, though single readings can be large or run the other way; the % refers to the signal ratio; note: potency is the fitted concentration of half-maximal effect; for activity change, negative = inhibition: % is set by controls: 0 for no effect and ±100 for the full control effect); details: GR-bla HeLa, beta-lactamase FRET ratio, dexamethasone-stimulated, 18 h; activity change, negative = inhibition: at 58.5 µM (top of the series) unless noted
How it was run: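 Read-out: beta-lactamase FRET substrate fluorescence, 2 h at room temperature, in HeLa cells stably carrying a GRE-driven bla reporter. Compounds were co-incubated with 5 nM dexamethasone agonist (final) for 18 h at 37 C.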

[5] = qHTS assay to identify small molecule antagonists of the glucocorticoid receptor (GR) signaling pathway - cell viability counter screen (AID 720693; active = well fitted curve in the direction sought with a large enough effect in the repeat runs; inconclusive = weak or mixed curves; inactive = no such curve, though single readings can be large; an effect the other way counts as inactive or inconclusive; note: potency is the fitted concentration of half-maximal effect; nearly all actives have a fitted effect of over 55% in size); details: GR-bla HeLa viability, CellTiter-Glo luminescence, 18 h, with 5 nM dexamethasone present; viability change, negative = cytotoxic: at 58.5 µM (top of the series)
[6] = qHTS assay for small molecule disruptors of the mitochondrial membrane potential - cell viability (AID 720634); note: nearly all actives have a fitted effect of over 20% in size; note: potency is the fitted concentration of half-maximal effect;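 for activity change, negative = cytotoxicity: human HepG2 liver cancer cells; % is set by controls: 0 for no effect and ±100 for the full control effect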
How it was run: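 Luminescence from CellTiter-Glo (ATP content) gave viability in HepG2 cells, read in the same wells as the MMP dye assay after 1 hr compound exposure at 37 C.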

[7] = target: Glucocorticoid receptor (Homo sapiens) (UniProt P04150); test: qHTS assay to identify small molecule agonists of the glucocorticoid receptor (GR) signaling pathway (AID 720691; active = well fitted activation curve with a large enough effect in the signal ratio in the repeat runs, not every such curve was filed as active; inconclusive = weak or mixed curves, or effect the other way; inactive = no such curve, though single readings can be large or run the other way; the % refers to the signal ratio; note: potency is the fitted concentration of half-maximal effect); details: GR-bla HeLa, beta-lactamase reporter ratio, 18 h; activation: at 62.4 µM (top of the series) unless noted
How it was run: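 HeLa GR-bla reporter line; cells pre-incubated 4 h, compound in DMSO 18 h at 37 C; LiveBLAzer B/G FRET substrate 2 h RT; fluorescence intensity read-out.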

[8] = qHTS assay for identifying genotoxic compounds that show differential cytotoxicity against isogenic chicken DT40 cell lines with known DNA damage response pathways - wild type cell line (AID 743012; active = well fitted curve in the direction sought with a large enough effect in the repeat runs; inconclusive = weak or mixed curves; inactive = no such curve, though single readings can be large; an effect the other way counts as inactive or inconclusive; note: potency is the fitted concentration of half-maximal effect; nearly all actives have a fitted effect of over 60% in size); details: DT40 wild type chicken cells viability, CellTiter-Glo, 40 h; activity change, negative = cytotoxicity: at 68.4 µM (top of the series)
How it was run: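 CellTiter-Glo luminescence readout of viability in wild type DT40 cells after 40 h compound exposure at 37 C/5% CO2; 300 cells/well; reagent incubated 30 min at room temperature before reading.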

[9] = qHTS assay to test for compound auto fluorescence at 535 nm (green) in HEK293 cells (AID 720680; active = well fitted curve in the direction sought with a large enough effect in the repeat runs; inconclusive = weak or mixed curves; inactive = no such curve, though single readings can be large; an effect the other way counts as inactive or inconclusive; note: % is set by controls: 0 for no effect and ±100 for the full control effect)
Tags give direction and shape of the fitted curve or compound fluorescence and quenching.

Chain of UniProt P04150 (P04150 whole entry, looked up): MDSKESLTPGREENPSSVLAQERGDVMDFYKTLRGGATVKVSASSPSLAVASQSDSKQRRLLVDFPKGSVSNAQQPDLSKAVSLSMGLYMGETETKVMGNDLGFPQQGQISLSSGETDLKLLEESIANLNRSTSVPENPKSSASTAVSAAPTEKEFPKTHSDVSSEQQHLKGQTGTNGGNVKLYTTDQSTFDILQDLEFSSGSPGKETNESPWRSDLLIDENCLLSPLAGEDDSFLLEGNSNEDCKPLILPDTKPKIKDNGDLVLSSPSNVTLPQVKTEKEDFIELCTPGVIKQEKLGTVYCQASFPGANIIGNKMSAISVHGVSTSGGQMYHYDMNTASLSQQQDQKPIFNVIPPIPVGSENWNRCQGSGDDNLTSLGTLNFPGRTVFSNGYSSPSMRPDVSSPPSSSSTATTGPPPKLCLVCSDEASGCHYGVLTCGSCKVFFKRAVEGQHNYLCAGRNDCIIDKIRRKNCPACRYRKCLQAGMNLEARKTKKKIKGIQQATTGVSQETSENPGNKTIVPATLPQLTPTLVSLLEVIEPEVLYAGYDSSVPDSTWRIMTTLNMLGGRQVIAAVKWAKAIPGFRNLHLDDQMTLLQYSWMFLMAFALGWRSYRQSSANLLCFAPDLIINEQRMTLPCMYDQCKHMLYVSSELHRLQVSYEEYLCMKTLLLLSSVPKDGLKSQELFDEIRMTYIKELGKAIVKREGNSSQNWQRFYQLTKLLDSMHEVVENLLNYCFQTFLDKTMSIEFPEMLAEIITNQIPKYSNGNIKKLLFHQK

Compound | Potency [1] | Potency [2] | Potency [3] | Potency [4] | Potency [5] | Potency [6] | Potency [7] | activity change, negative = inhibition [4] | Potency [8] | Potency [9]
CCC(C)(C)c1ccc(CC(C)CN2C[C@@H](C)O[C@@H](C)C2)cc1 (some centres undefined) | inconclusive: 29.8 µM [cytotoxic] | inconclusive: 37.6 µM [falling, partial curve, poor fit] | active: 23.7 µM | inconclusive: 23.9 µM [cytotoxic, partial curve] | inconclusive: 26.8 µM [cytotoxic, single point] | – | – | – | – | –
CCCCc1oc2ccc(NS(C)(=O)=O)cc2c1C(=O)c1ccc(OCCCN(CCCC)CCCC)cc1 | inconclusive: 26.6 µM [cytotoxic, partial curve] | active: 26.6 µM | – | inconclusive: 26.8 µM [cytotoxic, single point] | inconclusive: 26.8 µM [cytotoxic, single point] | active: 29.8 µM | inconclusive: 23.9 µM [cytotoxic, partial curve] | – | – | –
On1ccccc1=S | inconclusive: 30.3 µM [activator, partial curve] | inconclusive: 60.5 µM [falling, partial curve, poor fit] | active: 0.762 µM | – | – | – | – | inconclusive: -64.6% | active: 0.215 µM | –
CCCCC/C(C=O)=C\c1ccccc1 | inactive | – | inconclusive: 68.6 µM [inhibitor] | – | – | inconclusive: 68.6 µM [cytotoxic, partial curve, poor fit] | – | – | – | inactive
CC(=O)N1CCN(c2ccc(OC[C@H]3CO[C@](Cn4ccnc4)(c4ccc(Cl)cc4Cl)O3)cc2)CC1 | inconclusive: 61.1 µM [cytotoxic, partial curve] | – | inconclusive: 11.1 µM [rising, partial curve] | inconclusive: 54.9 µM [cytotoxic, single point] | inconclusive: 61.6 µM [cytotoxic, single point] | inconclusive: 61.1 µM [cytotoxic, single point] | inconclusive: 49 µM [cytotoxic] | – | – | –
C[n+]1cc2c3c(ccc2c2ccc4cc5c(cc4c21)OCO5)OCO3 | inconclusive: 2.66 µM [cytotoxic, full curve] | – | active: 8.41 µM | inconclusive: 6.74 µM [cytotoxic, full curve] | active: 6.74 µM | active: 11.9 µM | inconclusive: 6.01 µM [cytotoxic, single point] | – | – | –
CCCN(CCC)c1c([N+](=O)[O-])cc(C(F)(F)F)c(N)c1[N+](=O)[O-] | inconclusive: 43.1 µM [cytotoxic, partial curve] | inconclusive: 60.9 µM [falling, single point] | – | inconclusive: 54.8 µM [cytotoxic, single point] | active: 48.9 µM | inconclusive: 54.3 µM [cytotoxic, partial curve] | inconclusive: 38.8 µM [cytotoxic, partial curve] | – | – | –
CCCCC(CC)CN=C(N)NC(N)=NCCCCCCN=C(N)NC(N)=NCC(CC)CCCC (centres undefined) | inconclusive: 26.6 µM [cytotoxic, partial curve] | – | active: 17.6 µM | inconclusive: 23.9 µM [cytotoxic, partial curve] | active: 19 µM | active: 21.1 µM | inconclusive: 10.7 µM [cytotoxic, full curve] | – | – | –
CCCSS/C(CCO)=C(\C)N(C=O)Cc1cnc(C)nc1N | inconclusive: 23.7 µM [rising, partial curve] | – | inactive | – | – | inactive | – | – | – | –
CC1=C(C(=O)OC(C)C)C(c2cccc([N+](=O)[O-])c2)C(C(=O)OC2CN(C(c3ccccc3)c3ccccc3)C2)=C(N)N1 (centres undefined) | inconclusive: 10.6 µM [cytotoxic, full curve] | – | active: 1.19 µM | inconclusive: 10.7 µM [cytotoxic] | active: 8.49 µM | active: 7.5 µM | inconclusive: 6.01 µM [cytotoxic, full curve] | – | – | –
CCOc1nc2cccc(C(=O)OC(C)OC(=O)OC3CCCCC3)c2n1Cc1ccc(-c2ccccc2-c2nn[nH]n2)cc1 (centres undefined) | inconclusive: 12.2 µM [cytotoxic, full curve] | inconclusive: 48.5 µM [falling, single point] | – | inconclusive: 48.9 µM [cytotoxic, single point] | active: 38.9 µM | inconclusive: 15.3 µM [cytotoxic, partial curve, poor fit] | inconclusive: 34.6 µM [falling, partial curve] | – | – | –
